# Source: patent US20150335610A1, “PDK4 INHIBITOR AND USE THEREOF” (priority 2012, published 2015)
# Assays:
# [1] = test system: influenza virus A/Puerto Rico 8/34 strain; experiment: Biochemical parameters in peripheral blood, mouse model of influenza infection, Day 7; details: Day 7 after infection, FIG. 8; for blood glucose level / blood β-hydroxybutyric acid level: KIS7 2.8 mg/kg/day, DCA 56 mg/kg/day i.p.
# [2] = test system: influenza virus A/Puerto Rico 8/34 strain; experiment: Food and water intake in mouse model of influenza infection (7-day administration); details: i.p. Day 1 to Day 7; KIS7 2.8 mg/kg/day, DCA 56 mg/kg/day; FIG. 7
# [3] = test system: influenza virus A/Puerto Rico 8/34 strain; experiment: Body weight in mouse model of influenza infection (7-day administration); details: i.p. twice per day Day 1 to Day 7; KIS7 2.8 mg/kg/day, DCA 56 mg/kg/day; FIG. 6
# [4] = test system: influenza virus A/Puerto Rico 8/34 strain; details: 14-day i.p. administration
# [5] = test system: influenza virus A/Puerto Rico 8/34 strain; experiment: ATP level in mouse tissue, mouse model of influenza infection, Day 7; details: Day 7 after infection; KIS7 2.8 mg/kg/day i.p.; FIG. 9
# [6] = KIS7 2.8 mg/kg/day, KIS24 1.3 mg/kg, KIS37 1.6 mg/kg
Compound,blood glucose level [1],blood β-hydroxybutyric acid level [1],change in amount of food intake after influenza infection [2],change in amount of water intake after influenza infection [2],body weight change after influenza infection [3],survival rate maintained until Day 11 ([4]; KIS7 2.8 mg/kg/day) [%],"survival rate as of Day 14 [4, 6] [%]",blood ATP level ([1]; KIS7 2.8 mg/kg/day i.p.),blood lactic acid level ([1]; KIS7 2.8 mg/kg/day i.p.),ATP level in heart [5],ATP level in liver [5],day on which death occurred ([4]; KIS24 1.3 mg/kg) [days],survival rate maintained until Day 10 ([4]; KIS37 1.6 mg/kg) [%]
"O=C(O)C(Cl)Cl [DCA, dichloroacetic acid, reference compound]",hardly showed any improvement,hardly showed any improvement,started to drastically decrease on Day 6,clearly and markedly decreased on Day 7,could hardly suppress body weight loss,,,,,,,,
"Cc1cc2c(C(C)C)c(O)c(O)c(C=O)c2c(O)c1-c1c(C)cc2c(C(C)C)c(O)c(O)c(C=O)c2c1O [KIS7, gossypol]",equivalent values to non-infected mice,equivalent values to non-infected mice,a decrease in the amount of food intake was suppressed,a decrease in the amount of water intake was suppressed,body weight loss was not observed at all,100,70,equivalent values to non-infected mice,equivalent values to non-infected mice,equivalent ATP levels to non-infected mice,equivalent ATP levels to non-infected mice,,
"CC1(C)CCC2=C(O1)c1ccccc1C(=O)C2=O [KIS24, β-lapachone]",,,,,,,90,,,,,6,
"C[C@H]1COC2=C1C(=O)C(=O)c1c2ccc2c1CCCC2(C)C [KIS37, cryptotanshinone]",,,,,,,80,,,,,,100
